Counter-ions that a name gives are not always drawn. The list shows a part of the results. Many values rest on one well or one pass, so single values are uncertain.
system: OVCAR4; assay: log2 surviving fraction (library drug vs vehicle, or drug + carboplatin vs carboplatin alone; relative to plate median); ovarian cancer lines: OVCAR4 is platinum-sensitive and Ov4Carbo platinum-resistant; higher = more cell survival; settings: library drug concentration 10 µM; 7 days; carboplatin co-treatment 0 µM

Row | SMILES | log2 surviving fraction
1 | CCOC(=O)OC(C)OC1=C(C(=O)Nc2ccccn2)N(C)S(=O)(=O)c2ccccc21 (configuration not stated) [Ampiroxicam] | 0.513
2 | CC12CC3CC(C)(C1)CC(N)(C3)C2 [Memantine HCl (Namenda)] | -0.539
3 | CCN(CC)CCOC(=O)C(c1ccccc1)c1ccccc1 [Adiphenine HCl] | 0.513
4 | CCOC(CN1CCN(CC(C)C(=O)c2ccccc2)CC1)c1ccccc1 (configuration not stated) [Eprazinone 2HCl] | 0.0788
5 | O.O.O.O.O=C([O-])CC(O)(CC(=O)[O-])C(=O)[O-].[Li+].[Li+].[Li+] [Lithium Citrate] | -0.173
6 | O=[N+]([O-])c1ccc([As](=O)(O)O)cc1 [Nitarsone] | 0.528
7 | CC1=C(CC(=O)O)c2cc(F)ccc2/C1=C\c1ccc([S+](C)[O-])cc1 (configuration not stated) [Sulindac (Clinoril)] | 0.0404

— the supplement of paper PMC8047034
